{
  "source": "paper PMC9911399",
  "about": "“Two distinct binding modes provide the RNA-binding protein RbFox with extraordinary sequence specificity”",
  "binders": {"B1": {"name": "AGCCUGG (DNA:RNA)", "RNA": "GGGAGACCGGAAUUCAGAUUGUCCAGCCUGGUUAAAUCCCGUCGUAGCCACCA", "DNA 1": "CAATCTGAATTCCGGTCTCCC", "DNA 2": "TGGTGGCTACGACGGGATT"}, "B2": {"name": "UACUAUG (DNA:RNA)", "RNA": "B1 RNA with A25U, G26A, C28U, U29A, G30U", "DNA 1": "CAATCTGAATTCCGGTCTCCC", "DNA 2": "TGGTGGCTACGACGGGATT"}, "B3": {"name": "ACAAAGU (DNA:RNA)", "RNA": "B1 RNA with G26C, C27A, C28A, U29A, G31U", "DNA 1": "CAATCTGAATTCCGGTCTCCC", "DNA 2": "TGGTGGCTACGACGGGATT"}, "B4": {"name": "CGAGAUA (DNA:RNA)", "RNA": "B1 RNA with A25C, C27A, C28G, U29A, G30U, G31A", "DNA 1": "CAATCTGAATTCCGGTCTCCC", "DNA 2": "TGGTGGCTACGACGGGATT"}, "B5": {"name": "ACAGAAC (DNA:RNA)", "RNA": "B1 RNA with G26C, C27A, C28G, U29A, G30A, G31C", "DNA 1": "CAATCTGAATTCCGGTCTCCC", "DNA 2": "TGGTGGCTACGACGGGATT"}, "B6": {"name": "AGAAUGC (DNA:RNA)", "RNA": "B1 RNA with C27A, C28A, G31C", "DNA 1": "CAATCTGAATTCCGGTCTCCC", "DNA 2": "TGGTGGCTACGACGGGATT"}, "B7": {"name": "UCUUAUU (DNA:RNA)", "RNA": "GGGAGACCGGAAUUCAGAUUGUCCUCUUAUUUUAAAUCCCGUCGUAGCCACCA", "DNA 1": "CAATCTGAATTCCGGTCTCCC", "DNA 2": "TGGTGGCTACGACGGGATT"}, "B8": {"name": "UAUAAUU (DNA:RNA)", "RNA": "B7 RNA with C26A, U28A", "DNA 1": "CAATCTGAATTCCGGTCTCCC", "DNA 2": "TGGTGGCTACGACGGGATT"}, "B9": {"name": "UGACCCA (DNA:RNA)", "RNA": "B1 RNA with A25U, C27A, U29C, G30C, G31A", "DNA 1": "CAATCTGAATTCCGGTCTCCC", "DNA 2": "TGGTGGCTACGACGGGATT"}},
  "note": "Residue numbers refer to the chain shown, from its start. The list shows a part of the results.",
  "data": [
    {"molecular_target": "T1, RBFOX1 RRM RbFoxmut (Fox-RRM*) (Homo sapiens, UniProt Q9NWB1 109-208, R118D;E147R;N151S;E152T)", "T1 sequence": "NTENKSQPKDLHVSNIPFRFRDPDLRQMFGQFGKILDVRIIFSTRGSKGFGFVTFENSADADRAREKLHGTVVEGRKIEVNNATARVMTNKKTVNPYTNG", "test": "EMSA; HiTS-Eq, 1 nM pool, 10 min; buffer printed only for the single-RNA assays: 10 mM Tris pH 7.5, 150 mM NaCl, 3.4 mM EDTA, 0.001% NP-40, 30 C", "conditions": "tags: His6 N-terminal (pET28a); label: 5' 32P", "how_it_was_run": "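Purified RbFox RRM, wild type or mutant, was incubated for 10 min in 50 µL with 1 nM of a 5′-radiolabelled RNA pool carrying 7 randomized nucleotides, whose flanks were annealed to DNA oligonucleotides, over a series of increasing protein concentrations. Unbound RNA was resolved on 8% native PAGE, cut out, reverse-transcribed, barcoded by PCR and sequenced on an Illumina HiSeq 2500. Relative association constants were derived from changes in read counts for each RNA species versus the control reaction and normalised to the cognate motif.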", "values": [
      {"binder": "B1", "binding signal": "0.116 KA relative to UGCAUGU"},
      {"binder": "B2", "binding signal": "0.141 KA relative to UGCAUGU"},
      {"binder": "B3", "binding signal": "0.103 KA relative to UGCAUGU"},
      {"binder": "B4", "binding signal": "0.141 KA relative to UGCAUGU"},
      {"binder": "B5", "binding signal": "0.0763 KA relative to UGCAUGU"},
      {"binder": "B6", "binding signal": "0.408 KA relative to UGCAUGU"},
      {"binder": "B7", "binding signal": "0.109 KA relative to UGCAUGU"},
      {"binder": "B8", "binding signal": "0.0529 KA relative to UGCAUGU"},
      {"binder": "B9", "binding signal": "0.0589 KA relative to UGCAUGU"}
    ]}
  ]
}
